Test results published in PubChem BioAssay AID1479 (National Center for Advancing Translational Sciences (NCATS), 2009).
The campaign covered roughly 280,000 compounds. About 820 (0.29%) were called active. The shares of active, inactive and inconclusive entries below differ from those in the screen. Calls follow the shape of the dose curve; as a rule, active = well fitted curve in either direction with a large enough effect; inconclusive = small, poorly fitted or top-dose-only effect; inactive = flat fitted curve, though single readings scatter. Potencies of inconclusive entries are left out as doubtful fits.

Experiment: Total Fluorescence Counterscreen for Inhibitors of the Interaction of Thyroid Hormone Receptor and Steroid Receptor Coregulator 2
Details: TRb/SRC2 Texas Red total fluorescence interference; series mostly up to 106 µM; fluorescence change, negative = quenching: at the top concentration
Outline: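 Human TRb ligand-binding domain at 0.6 uM with 20 nM Texas Red SRC2 peptide in Tris buffer containing 1 uM T3 and 5% DMSO, incubated with compound 5 h at ambient temperature. Total fluorescence (555/632 nm) calculated as parallel + 2 × perpendicular.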
% is scaled to controls: 0 for no effect and ±100 for the full control effect; potency is read from the fitted curve at half-maximal effect; tags tell the direction and shape of the fitted curve or compound fluorescence and quenching.

With `Cc1ccc(NS(=O)(=O)c2ccc3[nH]c4c(c3c2)CCCC4)cc1N(C)C` as the compound, how does the Potency read?
Its Potency is inconclusive [quencher, full curve].

Which Potency does the source give for `COC(=O)C(NC(=O)CCc1c(C)nc2c(-c3ccccc3)c(C)nn2c1C)C(C)C` (stereo not drawn) here?
The Potency was inconclusive [quencher, full curve].

For `COc1ccc(C)cc1NC(=O)NC(C)c1c(-n2cccc2)sc(C)c1C` (stereo not drawn), which Potency is on record?
Its Potency is inconclusive [quencher, full curve].

For `Cc1cc2nn(-c3ccc(F)cc3)nc2cc1NC(=O)c1cccc2c(Cl)cccc12`, which Potency is on record?
The Potency was inconclusive [falling, full curve, poor fit].

With `Cc1cccc(N2CCN(S(=O)(=O)c3ccc4c(c3)CC(=O)N4C)CC2)c1C` as the compound, how does the Potency read?
Its Potency is active: 22.4 µM [quencher].

For `CN(C)c1ccc(/C=C(/C(=O)c2ccc(Cl)cc2Cl)n2cncn2)cc1`, which Potency is on record?
The Potency was active: 31600 µM [quencher].

With `COc1ccccc1Nc1nn2c(=O)c3ccc(C(=O)NCCC4=CCCCC4)cc3nc2s1` as the compound, how does the “fluorescence change, negative = quenching” value (from here on “fluorescence change”) read?
The value was inactive: -1.45%.

Which “fluorescence change” value does the source give for `Cc1ccc2cc(CN(C(=O)c3cccc(Cl)c3)c3ccccc3)c(=O)[nH]c2c1` here?
Its value is inactive: 4.2%.

Which Potency does the source give for `Cc1ccc(-n2c(=O)c3c(c4cc(C)ccc4n3C)n(CC(=O)NCc3ccccc3)c2=O)cc1` here?
The Potency was inconclusive [quencher, full curve].

With `CC(C)(C)c1ccc(C(=O)N2CCC(c3nc4ccccc4o3)CC2)cc1` as the compound, how does the Potency read?
Its Potency is inconclusive [falling, full curve, poor fit].

With `COC(=O)c1ccc2c(c1)C(C)(C)C(/C=C/c1ccccc1O)=[N+]2C` as the compound, how does the Potency read?
The Potency was active: 20 µM [fluorescent].

For `CCCCn1c(NCc2ccc(N(C)C)cc2)nc2ccccc21`, which Potency is on record?
The Potency was inconclusive [quencher, full curve].

For `CC(/C=C1\SC(=S)N(NS(=O)(=O)c2ccccc2)C1=O)=C\c1ccccc1`, which “fluorescence change” value is on record?
The value was inactive: -0.629%.

With `c1ccc(-c2nc3nc4ccccc4nc3n2Cc2ccco2)cc1` as the compound, how does the Potency read?
The Potency was inconclusive [quencher, partial curve].

Which Potency does the source give for `OCCC(O)CO` (stereo not drawn) here?
Its Potency is inconclusive [falling, full curve, poor fit].

For `CCN1CCN(C(=O)c2ccc(OCC(=O)Nc3ccc(F)cc3)c(OC)c2)CC1`, which “fluorescence change” value is on record?
The value was inactive: -0.348%.

With `O=C1C2=CC[C@H]3C(=O)N(C4CCCCC4)C(=O)[C@@H]3[C@@H]2[C@H](O)[C@@H]2O[C@H]12` as the compound, how does the Potency read?
Its Potency is inconclusive [falling, full curve, poor fit].

Which Potency does the source give for `COC1=C(Nc2ccc(O)cc2)C(=O)c2ccccc2C1=O` here?
The Potency was inconclusive [fluorescent, partial curve].
